# In all, about 44,000 compounds went through this assay and about 340 (0.77%) were called active. Another 5% or so got no clear call; they are omitted. Calls follow the shape of the dose curve; as a rule, active = well fitted inhibition curve with a large enough effect; inconclusive = small, poorly fitted or top-dose-only effect; inactive = flat fitted curve, though single readings scatter. This is one part of the list.
# Assay: Acumen qHTS Assay for Inhibitors of the mTORC1 Signaling Pathway in MEF (Tsc2-/-, p53-/-) Cells: Sytravon;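 also: plate controls were DMSO for no effect and rapamycin for full effect; nearly all actives have a fitted effect of over 50% in size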
# Settings: phospho-rpS6 immunofluorescence/PI, 24 h; series mostly up to 38.3 µM; activity change, negative = inhibition: at the top concentration
# Procedure, shortened: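 Cell-based qHTS: Tsc2-/- p53-/- MEF, 24 h cpd, 37 °C; fix/perm, anti-phospho-S6 Alexa-488 + PI; Acumen 488 nm scan; pS6/PI ratio, % positive cells; rapamycin 7.5 nM = inhibition ref; PI count = viability.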
row,SMILES,"activity change, negative = inhibition"
1,CCc1nnc2c3ccccc3nc(Nc3ccc(F)cc3C)n12,inactive: 4.82%
2,CCN1C(C(=O)c2ccccc2)=C(OC(=O)c2ccc(Cl)cc2)c2ccccc2S1(=O)=O,inactive: 5.51%
3,Cc1cccc(OC(C)C(=O)N2CCC(c3nc4ccccc4o3)CC2)c1C (stereo not given),inactive: 2.78%
4,CCc1ccc2oc(-c3cccc(NC(=O)c4ccc(-c5cccc([N+](=O)[O-])c5)o4)c3)nc2c1,inactive: -8.33%
5,CCOc1ccc(Br)cc1C1C(C(=O)Nc2ccccc2OC)=C(C)Nc2nnnn21 (stereo not given),inactive: -17%
6,CC(=O)N1c2ccc(S(=O)(=O)NCCc3cccc(C)c3)cc2CC1C (stereo not given),inactive: -7.5%
7,Cc1oc(-c2ccc(C(=O)N(C)Cc3ccccc3)cc2)nc1CN1CCc2ccccc21,inactive: -15.6%
8,CCOC(=O)c1cccc(NC(=O)N2Cc3ccccc3Oc3ncccc32)c1,inactive: -1.64%
9,COc1ccc(-n2c(=O)c3c4c(sc3n(Cc3ccccc3)c2=O)CCC4)c(OC)c1,inactive: -3.52%
10,CCOC(=O)c1ccc(-c2ccc(/C=C(\C#N)C(=O)Nc3cccc(C)c3)o2)cc1,inactive: -7.37%
11,Cc1ccc(NC(=O)CC2Sc3ccccc3NC2=O)c(C)c1 (stereo not given),inactive: 12.2%
12,CCN(C(=O)c1cc(S(=O)(=O)N2CCCCC2)c[nH]1)c1ccc(OC)cc1,inactive: 0.497%
13,C=Cc1ccc(CSc2nc(-c3ccc(Cl)cc3)nc3c2Cc2c(CO)cnc(C)c2O3)cc1,inactive: 1.69%
14,Cn1c(NCc2ccccc2F)nc2ccccc21,inactive: 0.0941%
15,COc1cc(Cl)c(C)cc1NC(=O)CSCc1nc(-c2ccc(OC)c(OC)c2)no1,inactive: -14%
16,Cc1ccc(C)c(Cn2cc(CCC(=O)NC3CCCCC3)c3ccccc32)c1,inactive: 5.57%
17,Cc1cccc(C)c1NC(=O)C1CCN(S(=O)(=O)c2cccc3nsnc23)CC1,inactive: 1.82%
18,COc1ccc(-c2nc(SCC(=O)NC3CCCC3)c(-c3ccccc3)[nH]2)cc1OC,inactive: -4.25%
19,CCOC(=O)C1CCN(C(=O)c2ccc3c(c2)sc2nc(-c4ccc(OCC)cc4)cn23)CC1,inactive: 0.205%
20,Cc1ccc(NC(=O)Cn2ccn(Cc3ccc(Cl)cc3)c(=O)c2=O)cc1C,inactive: -8.02%

row,SMILES,"activity change, negative = inhibition"
1,CC(=O)c1cccc(-n2c(CCC(=O)O)ccc2-c2ccccc2)c1,inactive: -17.8%
2,COc1ccc(OC)c(Nc2cc(C(=O)NCc3ccccc3)c3ccccc3n2)c1,inactive: -6.29%
3,Cc1ccc(-n2ncc3c(Nc4ccc5c(c4)OCCO5)ncnc32)cc1C,inactive: 2.68%
4,CCOc1ccccc1C(=O)N1CCc2cc(OC)c(OC)cc2C1COc1ccc2c(C)cc(=O)oc2c1 (stereo not given),inactive: -2.81%
5,COc1ccc(CNC(=O)c2cnn(-c3ccc(C)cc3)c2C2CCN(C(=O)OC(C)(C)C)CC2)cc1,inactive: -2.96%
6,CCOc1ccc(NC(=O)NC(CC)Cn2nnc3ccccc3c2=O)cc1 (stereo not given),inactive: -18.4%
7,Cc1ccc(OCCSc2nc3ccccc3n2CCC(=O)O)cc1C,inactive: 3.71%
8,COc1ccc(/C=C(\NC(=O)c2ccccc2)C(=O)NC2CCCCC2)cc1,inactive: -3%
9,CCN1CCN(C(c2ccc(Cl)cc2)c2c(O)cc(C)n(CCOC)c2=O)CC1 (stereo not given),inactive: 3.49%
10,O=C(CSc1ncc(S(=O)(=O)c2ccc(Br)cc2)c(=O)[nH]1)NCc1ccccc1Cl,inactive: -0.549%
11,COc1ccc(-c2cc(C(=O)Oc3ccc(Cl)cc3)c3ccccc3n2)cc1,inactive: 7.43%
12,Cc1cc(C)cc(N(CC(=O)Nc2ccc(C(F)(F)F)cc2)S(=O)(=O)c2c(C)[nH]c(=O)[nH]c2=O)c1,inactive: -12.1%
13,CCCCn1cnc2cc(NC(=O)c3cc(OC)c(OC)c(OC)c3)ccc21,inactive: 3.37%
14,COc1ccccc1C(=O)N1CCC(c2c[nH]c3ccccc23)(c2c[nH]c3ccccc23)CC1,inactive: -8.32%
15,O=C(CSc1nc(-c2ccccc2)[nH]c1-c1ccc(F)cc1)NC1CCCC1,inactive: -2.72%
16,CCC(=O)N1CCc2cc(S(=O)(=O)NC(Cc3ccccc3)C(=O)Nc3ccc(Cl)cc3)ccc21 (stereo not given),inactive: 0.181%
17,COc1ccc(CCNC(=O)c2cc3cccc4c3n2CC(C)S4)c(OC)c1OC (stereo not given),inactive: -6.36%
18,CCCC(=O)Nc1c(C(=O)N2CCN(c3ccccc3)CC2)oc2ccccc12,inactive: -2.92%
19,CC(C)c1ccc(S(=O)(=O)Nc2cc3c(cc2NCc2ccccc2)n(C)c(=O)n3C)cc1,inactive: -10.8%
20,COc1ccccc1C(=O)CC1(O)C(=O)N(CC(N)=O)c2ccccc21 (stereo not given),inactive: 13.5%

row,SMILES,"activity change, negative = inhibition"
1,CCc1ccccc1NC(=O)C1=CC(c2ccc3c(c2)OCO3)=NS(=O)(=O)N1C,inactive: -2.5%
2,CCOc1ccccc1NC(=O)Cn1c(=O)n(Cc2ccco2)c(=O)c2cccnc21,inactive: 0.378%
3,CC(C)(C)c1ccc(C(=O)Nc2ccc3nc(SCC(=O)N4CCCC4)sc3c2)cc1,inactive: -25.6%
4,CC(C)(C)OC(=O)N1CCC(c2c(C(=O)O)cnn2-c2ccc(F)cc2F)CC1,inactive: -5.48%
5,O=C(CN1C(=O)COc2ccc(S(=O)(=O)N3CCCCCC3)cc21)N1CCN(c2cccc(Cl)c2)CC1,inactive: -5.39%
6,COc1ccc(C(=O)c2cn(Cc3ccc(F)cc3)c3c(F)cc(F)cc3c2=O)cc1,inactive: 2.82%
7,Fc1ccc(-c2nnc(CN3CCN(c4ccccn4)CC3)o2)cc1,inactive: 1.63%
8,O=C(C1COc2cc(S(=O)(=O)Nc3ccc(Cl)cc3)ccc2O1)N1CCCC1 (stereo not given),inactive: 0.696%
9,CCc1ccccc1N(C)C(=O)c1cc2c(s1)-c1c(C)cccc1OC2,inactive: -7.49%
10,Cc1ccc(Cn2c(C)c(CNCc3ccccc3F)c(C(=O)O)c2C)cc1,inactive: -0.179%
11,CC(C)NS(=O)(=O)c1ccc(OCC(=O)N2CCN(c3cccc(Cl)c3)CC2)cc1,inactive: 1.1%
12,COc1cc(C2C(C(=O)Nc3ccccc3)=C(C)Nc3nc(SCC(=O)c4ccc(C)cc4)nn32)ccc1O (stereo not given),inactive: -3.91%
13,O=C(Cn1ncc2c3ccccc3n(Cc3ccccc3)c2c1=O)NCc1ccccc1,inactive: 3.9%
14,COC(=O)c1c(NC(=O)CCCOc2cccc(C)c2)sc2c1CCC(C)C2 (stereo not given),inactive: -5.4%
15,CCc1ccc(S(=O)(=O)c2nnn3c2nc(N2CCN(CC)CC2)c2sccc23)cc1,inactive: 2.88%
16,COc1ccccc1C(=O)Nc1ccc(-c2nc3cc(C)cc(C)c3o2)cc1,inactive: 6.75%
17,CCOC(=O)c1ccc(N2C(=O)c3n[nH]c(-c4ccco4)c3C2c2cccc(F)c2)cc1 (stereo not given),inactive: -15.4%
18,Cc1ccc(NC(=O)CSc2nc3ccc(NC(=O)c4cccc(Cl)c4)cc3s2)c(C)c1,inactive: -0.955%
19,Cc1ccc(CN(Cc2cccn2-c2nnc(N3CCCC3=O)s2)C(=O)Nc2cc(C)cc(C)c2)cc1,inactive: -7.47%
20,O=C(C1CCCN(S(=O)(=O)c2cccs2)C1)N1CCN(c2ccccc2F)CC1 (stereo not given),inactive: -28.9%
